# Test results published in the supplement of paper PMC8728848.
# The list shows a part of the results.
# How the values were obtained:
# Assay in all cases: glycan array binding signal (z-score within array); higher = stronger binding
# Conditions in all cases: glycan notation: IUPAC condensed, linker removed
# [1] = biological target: Fuc(a1-2)Gal6S(b1-4)Glc6S
# In short: (§1)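 Columns mapping to the same glycan were averaged after glycan names were converted to IUPAC-condensed notation. The data come from 3228 arrays in the Consortium for Functional Glycomics database, limited to those with an available protein sequence. Binding is reported as a within-array Z-score averaged across arrays of one protein sequence and across linkers.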
# [2] = biological target: Fuc(a1-2)Gal6S(b1-4)GlcNAc
# In short: as §1
# Fuc(a1-2)[Gal(a1-3)]Gal = biological target: Fuc(a1-2)[Gal(a1-3)]Gal
# In short: as §1
# [3] = biological target: Fuc(a1-2)[Gal(a1-3)]Gal(b1-3)GalNAc
# In short: as §1
# [4] = biological target: Fuc(a1-2)[Gal(a1-3)]Gal(b1-3)GlcNAc
# In short: as §1
# [5] = biological target: Fuc(a1-2)[Gal(a1-3)]Gal(b1-3)GlcNAc(b1-2)Man(a1-3)[Fuc(a1-2)[Gal(a1-3)]Gal(b1-3)GlcNAc(b1-2)Man(a1-6)]Man(b1-4)GlcNAc(b1-4)GlcNAc
# In short: as §1
# [6] = biological target: Fuc(a1-2)[Gal(a1-3)]Gal(b1-3)GlcNAc(b1-2)Man(a1-3)[Fuc(a1-2)[Gal(a1-3)]Gal(b1-3)GlcNAc(b1-2)Man(a1-6)]Man(b1-4)GlcNAc(b1-4)[Fuc(a1-6)]GlcNAc
# In short: as §1
# [7] = biological target: Fuc(a1-2)[Gal(a1-3)]Gal(b1-3)GlcNAc(b1-3)GalNAc
# In short: as §1
# [8] = biological target: Fuc(a1-2)[Gal(a1-3)]Gal(b1-4)Glc
# In short: as §1
# [9] = biological target: Fuc(a1-2)[Gal(a1-3)]Gal(b1-4)GlcNAc
# In short: as §1
# [10] = biological target: Fuc(a1-2)[Gal(a1-3)]Gal(b1-4)GlcNAc(b1-2)Man(a1-3)[Fuc(a1-2)[Gal(a1-3)]Gal(b1-4)GlcNAc(b1-2)Man(a1-6)]Man(b1-4)GlcNAc(b1-4)GlcNAc
# In short: as §1
# [11] = biological target: Fuc(a1-2)[Gal(a1-3)]Gal(b1-4)GlcNAc(b1-2)Man(a1-3)[Fuc(a1-2)[Gal(a1-3)]Gal(b1-4)GlcNAc(b1-2)Man(a1-6)]Man(b1-4)GlcNAc(b1-4)[Fuc(a1-6)]GlcNAc
# In short: as §1
# [12] = biological target: Fuc(a1-2)[Gal(a1-3)]Gal(b1-4)GlcNAc(b1-3)GalNAc
# In short: as §1
# [13] = biological target: Fuc(a1-2)[Gal(a1-3)]Gal(b1-4)[Fuc(a1-3)]Glc
# In short: as §1
# [14] = biological target: Fuc(a1-2)[Gal(a1-3)]Gal(b1-4)[Fuc(a1-3)]GlcNAc
# In short: as §1
# [15] = biological target: Fuc(a1-2)[Gal(a1-3)]Gal(b1-4)[Fuc(a1-3)]GlcNAc(b1-3)GalNAc
# In short: as §1
# [16] = biological target: Fuc(a1-2)[Gal(a1-4)]Gal(b1-4)GlcNAc
# In short: as §1
# [17] = biological target: Fuc(a1-2)[GalNAc(a1-3)]Gal
# In short: as §1
# [18] = biological target: Fuc(a1-2)[GalNAc(a1-3)]Gal(b1-3)GalNAc(a1-3)[Fuc(a1-2)]Gal(b1-4)GlcNAc
# In short: as §1
# [19] = biological target: Fuc(a1-2)[GalNAc(a1-3)]Gal(b1-3)GlcNAc
# In short: as §1
# [20] = biological target: Fuc(a1-2)[GalNAc(a1-3)]Gal(b1-3)GlcNAc(b1-2)Man(a1-3)[Fuc(a1-2)[GalNAc(a1-3)]Gal(b1-3)GlcNAc(b1-2)Man(a1-6)]Man(b1-4)GlcNAc(b1-4)GlcNAc
# In short: as §1
# [21] = biological target: Fuc(a1-2)[GalNAc(a1-3)]Gal(b1-3)GlcNAc(b1-2)Man(a1-3)[Fuc(a1-2)[GalNAc(a1-3)]Gal(b1-3)GlcNAc(b1-2)Man(a1-6)]Man(b1-4)GlcNAc(b1-4)[Fuc(a1-6)]GlcNAc
# In short: as §1
# [22] = biological target: Fuc(a1-2)[GalNAc(a1-3)]Gal(b1-3)GlcNAc(b1-3)GalNAc
# In short: as §1
# [23] = biological target: Fuc(a1-2)[GalNAc(a1-3)]Gal(b1-4)Glc
# In short: as §1
# [24] = biological target: Fuc(a1-2)[GalNAc(a1-3)]Gal(b1-4)GlcNAc
# In short: as §1
# [25] = biological target: Fuc(a1-2)[GalNAc(a1-3)]Gal(b1-4)GlcNAc(b1-2)Man(a1-3)[Fuc(a1-2)[GalNAc(a1-3)]Gal(b1-4)GlcNAc(b1-2)Man(a1-6)]Man(b1-4)GlcNAc(b1-4)GlcNAc
# In short: as §1
# [26] = biological target: Fuc(a1-2)[GalNAc(a1-3)]Gal(b1-4)GlcNAc(b1-2)Man(a1-3)[Fuc(a1-2)[GalNAc(a1-3)]Gal(b1-4)GlcNAc(b1-2)Man(a1-6)]Man(b1-4)GlcNAc(b1-4)[Fuc(a1-6)]GlcNAc
# In short: as §1
# [27] = biological target: Fuc(a1-2)[GalNAc(a1-3)]Gal(b1-4)GlcNAc(b1-3)Gal(b1-4)GlcNAc
# In short: as §1
# [28] = biological target: Fuc(a1-2)[GalNAc(a1-3)]Gal(b1-4)GlcNAc(b1-3)Gal(b1-4)GlcNAc(b1-3)Gal(b1-4)GlcNAc
# In short: as §1
# [29] = biological target: Fuc(a1-2)[GalNAc(a1-3)]Gal(b1-4)GlcNAc(b1-3)GalNAc
# In short: as §1
# [30] = biological target: Fuc(a1-2)[GalNAc(a1-3)]Gal(b1-4)[Fuc(a1-3)]GlcNAc
# In short: as §1
# [31] = biological target: Fuc(a1-2)[GalNAc(a1-3)]Gal(b1-4)[Fuc(a1-3)]GlcNAc(b1-3)GalNAc
# In short: as §1
# [32] = biological target: Fuc(a1-2)[GalNAc(a1-4)]Gal(b1-4)GlcNAc
# In short: as §1
# [33] = biological target: Fuc(a1-2)[GalNAc(b1-3)]Gal
# In short: as §1
# Fuc(a1-3)GlcNAc = biological target: Fuc(a1-3)GlcNAc
# In short: as §1
# [34] = biological target: Fuc(a1-3)[Gal(b1-4)]Glc6S
# In short: as §1
# [35] = biological target: Fuc(a1-3)[Gal(b1-4)]GlcNAc
# In short: as §1
# [36] = biological target: Fuc(a1-3)[Gal(b1-4)]GlcNAc(b1-2)Man(a1-3)[Fuc(a1-3)[Gal(b1-4)]GlcNAc(b1-2)Man(a1-6)]Man(b1-4)GlcNAc(b1-4)GlcNAc
# In short: as §1
binder,measurement,setting,value
Gz-CVNH (Gibberella zeae) (protein) MGSSHHHHHHSSGLVPRGSHMGNFHESSNNIWLEDGHILHAECGNGEGDYVESTLDLDYYIGNDDGSFSWGGENFSGSASNITLDIEGDDNIPVLRAELNPMDGDPVEANVNLSERIGNDCGTLIFLA,glycan array binding signal (z-score),[1],-0.132
same,glycan array binding signal (z-score),[2],-0.139
same,glycan array binding signal (z-score),Fuc(a1-2)[Gal(a1-3)]Gal,-0.147
same,glycan array binding signal (z-score),[3],-0.107
same,glycan array binding signal (z-score),[4],-0.131
same,glycan array binding signal (z-score),[5],-0.156
same,glycan array binding signal (z-score),[6],-0.107
same,glycan array binding signal (z-score),[7],0.001
same,glycan array binding signal (z-score),[8],-0.123
same,glycan array binding signal (z-score),[9],-0.094
same,glycan array binding signal (z-score),[10],-0.062
same,glycan array binding signal (z-score),[11],-0.132
same,glycan array binding signal (z-score),[12],-0.12
same,glycan array binding signal (z-score),[13],-0.109
same,glycan array binding signal (z-score),[14],-0.114
same,glycan array binding signal (z-score),[15],0.012
same,glycan array binding signal (z-score),[16],-0.147
same,glycan array binding signal (z-score),[17],-0.145
same,glycan array binding signal (z-score),[18],-0.144
same,glycan array binding signal (z-score),[19],-0.075
same,glycan array binding signal (z-score),[20],-0.121
same,glycan array binding signal (z-score),[21],-0.07
same,glycan array binding signal (z-score),[22],0.089
same,glycan array binding signal (z-score),[23],-0.186
same,glycan array binding signal (z-score),[24],-0.153
same,glycan array binding signal (z-score),[25],-0.083
same,glycan array binding signal (z-score),[26],-0.162
same,glycan array binding signal (z-score),[27],-0.152
same,glycan array binding signal (z-score),[28],-0.146
same,glycan array binding signal (z-score),[29],-0.15
same,glycan array binding signal (z-score),[30],-0.091
same,glycan array binding signal (z-score),[31],0.065
same,glycan array binding signal (z-score),[32],-0.142
same,glycan array binding signal (z-score),[33],-0.148
same,glycan array binding signal (z-score),Fuc(a1-3)GlcNAc,-0.129
same,glycan array binding signal (z-score),[34],-0.108
same,glycan array binding signal (z-score),[35],-0.14
same,glycan array binding signal (z-score),[36],-0.154
